{"source": "PubChem BioAssay (NCI)", "assay_in_all_cases": "DTP human tumour cell line panel, 48 h", "key": {"SK-MEL-2 melanoma": {"test_system": "SK-MEL-2 melanoma"}, "DMS 273 small cell lung": {"test_system": "DMS 273 small cell lung"}, "SNB-78 CNS": {"test_system": "SNB-78 CNS"}, "SR leukemia": {"test_system": "SR leukemia"}, "U251 CNS": {"test_system": "U251 CNS"}, "RPMI-8226 leukemia": {"test_system": "RPMI-8226 leukemia"}, "HCC-2998 colon": {"test_system": "HCC-2998 colon"}, "NCI-H23 lung": {"test_system": "NCI-H23 lung"}, "UO-31 renal": {"test_system": "UO-31 renal"}, "M14 melanoma": {"test_system": "M14 melanoma"}, "786-0 renal": {"test_system": "786-0 renal"}, "SNB-75 CNS": {"test_system": "SNB-75 CNS"}, "SK-OV-3 ovarian": {"test_system": "SK-OV-3 ovarian"}, "UACC-257 melanoma": {"test_system": "UACC-257 melanoma"}, "HCT-15 colon": {"test_system": "HCT-15 colon"}, "SK-MEL-28 melanoma": {"test_system": "SK-MEL-28 melanoma"}}, "note": "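Where inhibition never reached the appropriate level, the endpoint shown equals the highest concentration tested. Otherwise, values were interpolated linearly from a five-concentration, 48-hour dose response in 96-well plates. GI50 = concentration required for 50% inhibition of growth.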 Not every entry of the source has a single result; some have several. Only these are listed. The source may hold further records. For some of these results: Results that share an entry are repeats in other runs, samples, wells, individuals or studies. Brackets tell where a record comes from. A, B and so on number the origins entry by entry.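 TGI marks complete inhibition of growth.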 For some of these results: The tests behind the records often covered other concentration ranges, not given here; a value can be the end of its range."}
{"smiles": "CC(=O)OC1C(=O)C(O)C(C)OC1O[C@@H]1C[C@@]2(C)[C@@H]3CC=C4[C@@H](C[C@H](O)C(=O)C4(C)C)[C@]3(C)C(=O)C[C@]2(C)[C@H]1[C@@](C)(O)C(=O)/C=C/C(C)(C)O", "note": "(stereo partly specified)", "values": [{"measurement": "TGI", "setting": "SK-MEL-2 melanoma", "result": "68.8 nM and 2.95 µM"}, {"measurement": "TGI", "setting": "DMS 273 small cell lung", "result": "69.8 nM and > 10 µM"}, {"measurement": "TGI", "setting": "SNB-78 CNS", "result": "96.9 nM and 9.38 µM"}]}
{"smiles": "O=C(/C=C/c1cccnc1)NCCCCC1CCN(C(=O)c2ccccc2)CC1", "values": [{"measurement": "GI50", "setting": "SR leukemia", "result": "34.6 nM [sample A, 1 test] and 1.61 µM [sample B, mean of 2 tests]"}, {"measurement": "GI50", "setting": "U251 CNS", "result": "141 nM [sample A, mean of 2 tests] and 11.4 µM [sample B, 1 test]"}, {"measurement": "GI50", "setting": "RPMI-8226 leukemia", "result": "1.34 µM [sample A, mean of 2 tests] and < 10 nM [sample B, mean of 2 tests]"}, {"measurement": "GI50", "setting": "HCC-2998 colon", "result": "> 100 µM [sample A, 1 test] and 419 nM [sample B, mean of 2 tests]"}]}
{"smiles": "O=C1c2cccc3cc([N+](=O)[O-])cc(c23)C(=O)N1CCNCCNCCNCCN1C(=O)c2cccc3cc([N+](=O)[O-])cc(c23)C1=O", "values": [{"measurement": "TGI", "setting": "NCI-H23 lung", "result": "7.29 nM and 390 nM"}]}
{"smiles": "COc1c(O)c2c(c3cc(C(=O)N4CCc5c4c(O)c(OC)c4[nH]c(C(=O)N6CC7CC78C6=CC(=O)c6[nH]cc(C)c68)cc54)[nH]c13)CCN2C(N)=O", "note": "(stereo unspecified)", "values": [{"measurement": "TGI", "setting": "UO-31 renal", "result": "24.6 nM and 449 nM"}, {"measurement": "TGI", "setting": "M14 melanoma", "result": "3.71 nM and 490 nM"}, {"measurement": "TGI", "setting": "786-0 renal", "result": "108 nM and > 100 µM"}, {"measurement": "TGI", "setting": "SNB-75 CNS", "result": "18.7 nM and 270 nM"}, {"measurement": "TGI", "setting": "SK-OV-3 ovarian", "result": "6.8 nM and > 100 µM"}, {"measurement": "TGI", "setting": "UACC-257 melanoma", "result": "12.6 nM and 3.74 µM"}, {"measurement": "TGI", "setting": "HCT-15 colon", "result": "267 nM and 3.2 µM"}, {"measurement": "TGI", "setting": "SK-MEL-28 melanoma", "result": "3.82 nM and > 100 µM"}]}
